From PubChem BioAssay AID488969 (Vanderbilt High Throughput Screening Facility, 2010)
In all, about 110,000 compounds were measured (“z-score”: median about -0.1, highest 2% from about 2 on). This is one part of the list. Activity calls are given as the source filed them.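 How the source made its calls: active means z-score in the third read window above 3 or below -3; inactive means the rest.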

Biological target: Metabotropic glutamate receptor 8 (Rattus norvegicus) (UniProt P70579)
Assay: rat mGluR8 modulators via GIRK flux, primary screen, cell-based, thallium flux, HTS (AID 488969)
Details: HEK293 rat mGluR8, GIRK (G protein-gated inwardly rectifying potassium channel) thallium flux, FluoZin2; at 10 µM; stronger effect = higher value; submaximal glutamate (EC20) added with thallium

UniProt P70579, sequence (P70579 whole entry, looked up): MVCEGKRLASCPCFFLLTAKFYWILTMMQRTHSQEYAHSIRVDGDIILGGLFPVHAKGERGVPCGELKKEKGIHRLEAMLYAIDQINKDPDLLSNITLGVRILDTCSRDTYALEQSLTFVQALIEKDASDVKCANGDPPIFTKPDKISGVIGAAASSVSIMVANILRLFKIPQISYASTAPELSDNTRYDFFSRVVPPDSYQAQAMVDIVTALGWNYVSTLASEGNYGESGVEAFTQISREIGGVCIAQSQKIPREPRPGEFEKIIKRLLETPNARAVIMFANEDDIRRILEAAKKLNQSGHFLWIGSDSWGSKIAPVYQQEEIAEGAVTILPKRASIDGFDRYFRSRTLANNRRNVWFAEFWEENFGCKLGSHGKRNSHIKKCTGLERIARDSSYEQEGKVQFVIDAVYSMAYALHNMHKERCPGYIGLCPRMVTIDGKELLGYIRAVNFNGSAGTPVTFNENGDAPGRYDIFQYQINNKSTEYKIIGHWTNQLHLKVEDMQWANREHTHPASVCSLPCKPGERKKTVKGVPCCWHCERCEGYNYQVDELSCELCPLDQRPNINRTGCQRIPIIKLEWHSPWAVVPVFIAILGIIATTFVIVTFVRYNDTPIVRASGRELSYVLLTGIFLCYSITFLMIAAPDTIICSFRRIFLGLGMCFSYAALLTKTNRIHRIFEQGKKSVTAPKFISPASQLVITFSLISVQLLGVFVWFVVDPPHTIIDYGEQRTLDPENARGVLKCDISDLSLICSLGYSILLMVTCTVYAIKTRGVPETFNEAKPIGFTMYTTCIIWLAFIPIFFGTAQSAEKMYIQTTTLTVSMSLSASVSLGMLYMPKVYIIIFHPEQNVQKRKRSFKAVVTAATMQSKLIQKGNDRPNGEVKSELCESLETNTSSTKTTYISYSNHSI

Compound | z-score
O=C1C2C3C=CC(C3)C2C(=O)N1c1n[nH]c(CCc2ccccc2)n1 (configuration not stated) | 0.0315
Cc1c(NS(=O)(=O)c2cccc(C(=O)NCc3ccc(Cl)cc3)c2)c(=O)n(-c2ccccc2)n1C | -0.838
CC(=O)Oc1ccc(/C=c2\sc3ncnn3c2=O)cc1 | 0.968
CCOc1ccc(NC(=O)COC(=O)c2ccc3c(c2)C(=O)N(CCc2ccccc2)C3=O)cc1 | 0.708
COc1cccc(Nc2cc(C)nc3ccccc23)c1 | 2.53
N#CC12CCCCC1CC1CCCCC1(C#N)N2Cc1cccnc1 (configuration not stated) | 0.401
Cn1nnnc1SCC(=O)Nc1ccccc1Cc1ccccc1 | 0.0715
Cc1cc(C)n2c(SCc3ccccc3Cl)nnc2n1 | -0.528
O=C(O)C1C2C=CC(C2)C1C(=O)N1CCN(CCO)CC1 (configuration not stated) | -0.388
CSc1sc(C)cc1C1C(C#N)=C(N)N(c2cccnc2)C2=C1C(=O)CCC2 (configuration not stated) | -0.583
Cc1ccc2nsnc2c1NC(=O)c1ccc(-c2cc(Cl)ccc2Cl)o1 | -0.432
COCCCn1c(SCC(=O)N(C)C)nnc1-c1ccccc1 | -0.348
N#Cc1cccnc1Nc1cccc(Cl)c1 | -0.154
Clc1ccc(OCc2cn3cccnc3n2)c2ncccc12 | 0.932
Cc1ccc(C)c(NC2=NC3(CCCCC3)N=C(N)N2)c1 | -0.297
COc1cccc(NC(=O)Cc2nnc(SCCOc3ccccc3)n2C)c1 | -0.161
C/C(O)=C\c1nc2ccccc2oc1=O | 0.253
Cc1cc(C)c(S(=O)(=O)N2CCCOC2CNC(=O)C(=O)NCCc2c[nH]c3ccccc23)c(C)c1 (configuration not stated) | 0.117
Cc1cc(C(=O)N2CCN(C/C=C/c3ccccc3)CC2)no1 | 0.57
COc1ccc(Cc2c(Cl)ncnc2Cl)cc1 | 0.301
COc1ccc(CCC(=O)Nc2nc3ccccc3[nH]2)cc1OC | 0.784
CSc1cccc(NC(=O)CN(Cc2ccc(Cl)cc2)S(C)(=O)=O)c1 | 1.13

Compound | z-score
COC(=O)c1cccc(NC(=O)CCNC(=O)c2ccc([N+](=O)[O-])cc2)c1 | -0.0412
COc1cc(OC)cc(C2C(C#N)=C(N)Oc3n[nH]c(-c4cccnc4)c32)c1 (configuration not stated) | -1.51
CCOC(=O)N1CCC(NC(=O)C(Cc2ccccc2)NC(=O)c2ccco2)CC1 (configuration not stated) | 0.125
Cc1nc2c(-c3ccc(F)cc3)c(C)nn2c(C)c1CCC(=O)NC(C)CCc1ccco1 (configuration not stated) | -0.796
O=C(O)CCCCCNC(=O)c1ccccc1 | -1.23
COc1ccc(N(C(=O)c2ccc(Cl)cc2)C2=CC3CCC(C2)N3C)cc1 (configuration not stated) | 1.47
O=C(Nc1ccc2nc(-c3ccco3)[nH]c2c1)c1ccco1 | 0.934
CCOc1ccc(C(=S)NC2CCCCC2)cc1 | -0.292
O=C(COC(=O)C1CC1)Nc1ccc(OC(F)F)cc1 | -0.197
CCNC(=S)Nc1ccc(C)c(Cl)c1 | -0.148
COc1cccc(/C=N/NC(=O)C(=O)NCc2ccco2)c1OC | -0.14
Cc1cc(C)n2ncc(C(=O)NCc3ccc(Cl)cc3)c2n1 | -0.391
Cc1ccc(NC(=O)CNc2ccc(OC(C)C)cc2)c(C)c1 | -0.129
Cc1c(C(=O)N2CCN(c3ccccc3F)CC2)sc2nc(-c3ccccc3)cn12 | 0.376
COc1ccc(N2CCN(C(=O)CN(c3ccccc3)S(=O)(=O)c3ccc(OC)cc3)CC2)cc1 | -0.0102
COc1ccc(-c2csc(Nc3cccnc3)n2)cc1OC | -0.0895
COc1ccc(Nc2nc(C)cc(C)c2C#N)cc1OC | active: 6.74
C(=N\N(c1ccccc1)c1ccccc1)/c1ccc(N2CCOCC2)s1 | -0.146
CS(=O)(=O)N1N=C(c2ccccc2)CC1c1cccs1 (configuration not stated) | -0.136
COCCCn1[nH]c2c3c(ccc2c1=O)C(=O)c1ccccc1C3=O | -0.214
CCC(CC)C(=O)c1c[nH]c(C(=O)NCCCn2ccnc2)c1 | 0.112
CN(C)S(=O)(=O)c1ccc(NC(=O)N2CCN(c3cccc(C(F)(F)F)c3)CC2)cc1 | -0.474

Compound | z-score
CC1CN(S(=O)(=O)c2ccc(NC(=O)c3ccco3)cc2)CC(C)O1 (configuration not stated) | -0.255
Cn1c(=O)c2c(nc(CN3CCN(C(=O)c4ccco4)CC3)n2Cc2ccc(Cl)cc2)n(C)c1=O | -0.465
COc1cnc(-c2ccccn2)nc1Sc1ccccc1Cl | -0.743
CC(=O)COc1ccccc1OC(=O)c1ccco1 | -0.243
Cc1cc(C)n(-c2nc3c(c(=O)[nH]c(=O)n3C)n2CC(O)COc2ccc(Cl)cc2Cl)n1 (configuration not stated) | -0.148
C=C(C)c1cccc(C(C)(C)NC(=O)N2CCN(c3ccc(OC)cc3)CC2)c1 | -0.0296
O=C(NC(=S)N(Cc1ccccc1)Cc1ccccc1)c1ccccc1F | -1.15
CCOC(=O)c1sc(N(Cc2ccccc2)C(=O)CN2C(=O)CN(C)C2=O)nc1C | 0.75
CC(C)CN(CC(C)C)C1=N/C(=C\c2ccco2)C(=O)N1c1ccccc1 | 0.265
C=CCOc1cccc(C2/C(=C(/O)c3ccc(Cl)cc3)C(=O)C(=O)N2CCN2CCOCC2)c1 (configuration not stated) | -0.349
Cc1ccc(-n2nc(C)c3c2OC(N)=C(C#N)C3c2ccc(C)o2)cc1 (configuration not stated) | 0.761
CCCCc1ccc(-c2nc(NC(=O)C3C4CCC(O4)C3C(=O)O)sc2C)cc1 (configuration not stated) | -0.0109
CN(c1cccc(NC(=O)c2ccccc2N(C)S(C)(=O)=O)c1)S(C)(=O)=O | -0.0724
CCOC(=O)c1[nH]c(C)c(C(=O)NCc2ccc(OC)cc2)c1C | -0.442
Cc1cccc(-c2noc(CCC(=O)NCc3ccco3)n2)c1 | -0.178
CCCn1nc(-c2nnc(-c3ccc(C)c(C)c3)o2)c2ccccc2c1=O | 0.372
Cc1[nH]nc(N=CC2=C(O)CC(C)(C)CC2=O)c1-c1ccccc1 | -0.178
COc1ccc(C2Nc3ccc4ccccc4c3-c3c2c(=O)oc2ccccc32)cc1 (configuration not stated) | 0.892
CCn1c(SCC(=O)c2c[nH]c3ccccc23)nc2cc(S(=O)(=O)N3CCOCC3)ccc21 | -0.307
CC1=NN(c2ccccc2)C(=O)/C1=C/c1c(O)n(-c2ccc(F)c(Cl)c2)[nH]c1=O | -0.788
CCCCc1nc(SCC(=O)Nc2ccc(S(N)(=O)=O)cc2)n[nH]1 | -0.0229
O=C(Nc1ccc2c(c1)OCO2)C1CCN(S(=O)(=O)c2cccc3cccnc23)CC1 | -0.165

Compound | z-score
O=[N+]([O-])c1ccc([C@H](O)[C@H](CO)N=Cc2ccccc2O)cc1 | -0.236
CCCN(CCC)CCNC(=O)C(NS(=O)(=O)c1ccc2c(c1)CCC(=O)N2)c1ccccc1 (configuration not stated) | active: 10
Cc1ccc(C(=O)NNC(=O)c2cccnc2SCc2cccc([N+](=O)[O-])c2)cc1 | -0.0883
C/C(=C\C(=O)c1cccnc1)Nc1ccc(C)c(C)c1 | 0.541
CCOC(=O)C1CCN(c2c(NCCCN(CC)c3ccccc3)c(=O)c2=O)CC1 | 0.189
O=C(c1cc2nc(-c3cccs3)cc(C(F)(F)F)n2n1)N1CCCc2ccccc21 | -0.37
Cc1cccc(NS(=O)(=O)c2c(C)n[nH]c2C)c1 | -0.177
CN1C(=O)/C(=C/c2ccccc2OCc2cccc(F)c2)N(C)C1=S | -0.268
C/C=C/c1ccccc1OCc1ccc(C(=O)O)o1 | -1.02
CC(=O)N(CN1C(=O)c2ccc([N+](=O)[O-])cc2C1=O)c1ccc(F)cc1 | -0.119
C/C(=N\NC(=O)c1ccccc1)c1cc2cc([N+](=O)[O-])ccc2oc1=O | -0.275
COc1ccc(/C=N/NC(=O)c2ccccc2Cl)cc1CSc1nc2ccccc2s1 | 0.259
O=C(CN1CCN(c2ccccc2F)CC1)c1ccc2cc[nH]c2c1 | -0.111
O=c1nc2ccccc2c2n1CC(CN1CCN(c3cccc(Cl)c3)CC1)N2 (configuration not stated) | -0.206
CC(=O)C1(O)C(C)CC2C3CCC4CC(O)CCC4(C)C3=CCC21C (configuration not stated) | 0.00674
N#CC(C(=O)Nc1ccccc1)=C1Nc2ccccc2N1 | -0.369
Cc1ccc(NC(=S)NCC2CCCO2)c(OC(F)F)c1 (configuration not stated) | 0.621
CCCCOc1cccc(C(=O)N(Cc2cccs2)C2CCS(=O)(=O)C2)c1 (configuration not stated) | -1.45
COc1ccc(-c2nc3ccccc3c(=O)n2CCCN2CCOCC2)cc1 | -0.264
Cc1ccc2c(c1)C(c1ccc([N+](=O)[O-])cc1)=NNC(c1ccc(Br)cc1)=N2 | -0.123
O=C(NCC1CCCO1)C(c1cccs1)N(C(=O)Cn1nnc(-c2cccs2)n1)C1CCCC1 (configuration not stated) | -0.378
O=C(NC(=S)Nc1ccccn1)c1cc(-c2ccccc2)nc2ccccc12 | active: 3.22

Compound | z-score
CCc1cc(C(=O)OC)c(N2C(=O)C3C4C=CC(C4)C3C2=O)s1 (configuration not stated) | 0.0635
Cc1ccc(S(=O)(=O)N2CCN(S(=O)(=O)N3CCOCC3)CC2)c(C)c1 | -1.14
CCOC(=O)c1c(C)c(C(=O)NCc2ccccc2OC)c(C)n1C | -0.402
COCCn1c(SCC(=O)Nc2ccc(S(=O)(=O)N3CCOCC3)cc2)nc2ccccc21 | -1.59
CCc1nn2c(=O)cc(CSc3nc(C)cc(=O)[nH]3)nc2s1 | -0.245
Cc1noc(C(=O)Nc2cccnc2)c1Cl | -0.119
CCn1c2ccccc2c2cc(NC(=O)C(C)Oc3ccc(OC)cc3)ccc21 (configuration not stated) | -0.27
Cc1ccc(-c2cc(-c3ccccc3C)[nH]n2)c(O)c1 | -0.115
O=C(N/N=C/C=C/c1ccco1)c1cccnc1 | 0.249
CCOC(=O)N1C(=O)C2(CCCCC2)N(c2ccccc2Cl)C1=S | 0.172
CCCn1nc(C(=O)N2CCc3ccccc3C2)c2ccccc2c1=O | -1.93
COC(=O)c1cc2ccsc2n1CC(=O)N(C)c1ccccc1 | -0.42
O=C(N/N=C/c1c[nH]c2ccccc12)C1COc2ccccc2O1 (configuration not stated) | -0.169
O=C(CCCN1C(=O)c2ccccc2C1=O)Oc1ccc(Cl)cc1 | -0.318
Cn1c(=O)c2c(nc(CN3CCN(c4ccccc4F)CC3)n2CCN2CCOCC2)n(C)c1=O | 0.0673
O=C(NCCC1=CCCCC1)c1ccc(CN2CCOCC2)cc1 | -0.423
Cc1ccc(CN(C(=O)Cc2cccs2)C(C(=O)NC2CCCC2)c2ccncc2)cc1 (configuration not stated) | -0.319
CCn1c(CSc2nc3ccccc3s2)nnc1SCC(=O)NCC(=O)OC | -0.0142
O=C(Nc1nccs1)NC1CCCCC1 | 1.72
